# Source: PubChem BioAssay (NCI)
# “And” between values parts separate entries of the source, which are not always exact repeats. Equal values may be shown once.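 The compound was tested at five concentrations on cells cultured in 96-well plates, with a 48-hour exposure period. GI50: concentration for 50% inhibition of growth. Definition used: TGI = concentration required for complete inhibition of growth.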
# Tested on: NCI-H322M lung
# Test: growth of human tumour cells (NCI), 48 h
Compound,TGI,GI50
COc1ccc(C(=O)/C=C/c2ccc(OCC(=O)O)cc2)cc1,> 100 µM,
O=C(Nc1nncs1)NS(=O)(=O)n1cnc2ccccc21,> 100 µM,
Cn1c(=O)c2c(ncn2CCSS(=O)(=O)O)n(C)c1=O,> 100 µM,
CO/N=C(\COc1ccc2c(c1)oc(=O)c1cc(OC)ccc12)c1ccc(F)cc1,54 µM,18.2 µM
COc1cc(C=Nc2ccc(S(N)(=O)=O)cc2)cc(OC)c1,> 50 µM,
CCN(CC)CCCNc1nc2ccccc2c2c(=O)c3cc(Cl)ccc3sc12,19.3 µM,6.12 µM
CN(C)CS/C(N)=N\C(O)C(Cl)(Cl)Cl (stereo unspecified),> 100 µM,
O=C1Nc2ccccc2/C1=C/c1cn(C(=O)c2c(Cl)cccc2Cl)c2ccccc12,17.8 µM,2.91 µM
CCN(CC)c1nc(N(C)C)c2ccc(OC)cc2n1,36 µM,
Cn1ccnc1C(=O)/C=C/c1ccc(C(=O)Nc2ccccc2O)cc1,8.43 µM,2.32 µM
CC(=O)OCC1OC(n2c3c(cc(C#N)c2=S)CCCCCC3)C(OC(C)=O)C(OC(C)=O)C1OC(C)=O (stereo unspecified),> 100 µM,
COc1ccccc1-c1nc2ccccc2c(=O)[nH]1,> 100 µM,
CC(=O)[O-].[Ni].c1ccc(/C(=N\Nc2ccccn2)c2ccccn2)cc1,29.7 µM,
NC(N)=N/N=C(/c1ccccc1)c1ccc(Cl)cc1,> 100 µM,34.9 µM
NC(CCCNc1cccc(O)c1)C(=O)O (stereo unspecified),> 100 µM,
O=C(O)C(Cc1cnc[nH]1)N=Cc1nc(-c2ccccc2)oc1O (stereo unspecified),> 100 µM,
C/C=C(\CCC1NCCc2c1[nH]c1ccccc21)[Si](C)(C)C (stereo unspecified),20 µM and 9.95 µM,8.28 µM and 3.23 µM
CC(=O)c1c(O)ccc2c(C)c(C(=O)O)oc12,> 100 µM,> 100 µM
N#CCCN(CCC#N)c1ccc(/C=N\c2nc(-c3ccccc3)cs2)cc1,> 100 µM,
Cc1ccc(S(=O)C[C@@]2(C(F)F)NC(=O)NC2=O)cc1 (stereo partly specified),> 100 µM,
NC(N)=NS(=O)(=O)c1ccc(Nc2c3ccccc3nc3c(C(=O)NC(CO)(CO)CO)cccc23)cc1,75.1 µM,
CCCCCCCCCCCCCCCCOC(=O)c1c(C)[nH]c(/C=C2\N=C(c3ccc[nH]3)C=C2OC)c1C,54.8 µM,5.86 µM
c1ccc2c(-c3nc4ccccc4[nH]3)cccc2c1,44 µM,6.69 µM
Cc1ccc(-c2nc3c(C(=O)NCCN(C)C)cccc3[nH]2)cc1,47 µM,
Cc1nc2c(n1CCC(C)C)C(=O)c1ccccc1C2=O,> 100 µM,

Compound,TGI,GI50
COc1cc(OC)c2cc(C(=O)O)c(=O)oc2c1,> 100 µM,> 100 µM
CCCCCCCCCCCCCC(=O)OC(/C=C/C(C)C)C(O)C(O)C(OC)C(=O)NC1CCCCNC1=O (stereo unspecified),6.94 µM,
Cn1cnc([N+](=O)[O-])c1SC1=NCCS1,> 100 µM,
O=C1CSC(=S)N1Cc1cccnc1,72.9 µM,24.3 µM
O=C(N/N=c1/ccoc2cccnc12)N1CCN(c2ncccn2)CC1,10.9 µM,0.273 µM
CCSc1nc(N2CCCCC2)c2cn[nH]c2n1,> 100 µM,67.9 µM
Cc1cc(O)ccc1O,> 100 µM,37.6 µM
Nc1nc(Cl)c(N=Nc2ccc(Cl)cc2)c(NCC2(CO)CC(OCc3ccccc3)C2)n1 (stereo unspecified),> 100 µM and 63.2 µM,30.3 µM and > 100 µM and 21.2 µM
Oc1ccc2c3c1OC1C(=NN=C4CCC5(O)C6Cc7ccc(O)c8c7C5(CCN6CC5CC5)C4O8)CCC4(O)C(C2)N(CC2CC2)CCC314 (stereo unspecified),> 100 µM,
COC(=O)C1=COC2OC3/C(=C\c4ccc(O)c(OC)c4)C(=O)OC34C=CC1C24 (stereo unspecified),34 µM,
COc1ccc(CC2NCCc3cc(OC)c(OC)cc32)cc1 (stereo unspecified),> 100 µM,
N#CCc1ccc(/C(C#N)=C2/OC(=N)C(c3ccc(CC#N)cc3)C2=O)cc1 (stereo unspecified),> 100 µM,
Cc1nc(N)c(N2CCN(Cc3ccccc3)CC2)c(=O)[nH]1,> 100 µM,
Cc1cc(NS(=O)(=O)c2ccc(NC(=O)c3cccc4cc5ccccc5nc34)cc2)no1,58.2 µM,
COc1cc(Nc2ncc3c(C)nc(-c4cccc(Oc5ccccc5)c4)n3n2)cc(OC)c1OC,> 25 µM,5.57 µM
N#CCC12CC=CCC1=C(O)C(=O)c1ccc(O)cc12 (stereo unspecified),> 100 µM,
c1nc(SSc2ncnc3nc[nH]c23)c2[nH]cnc2n1,> 31.5 µM,
O=C1/C(=C/c2ccc(Cl)cc2)CN(Cc2cn(CCNc3ccnc4cc(Cl)ccc34)nn2)C/C1=C\c1ccc(Cl)cc1,1.85 µM,0.657 µM
COc1ccc2c[n+](C)c3c4cc(OC)c(OC)cc4ccc3c2c1,31.4 µM,
c1ccc(/N=N\Nc2ccc(-c3nc4ccccc4o3)cc2)nc1,> 100 µM,
COc1cc(C2c3[nH]c4ccc(F)cc4c3C[C@H]3COC(=O)N23)cc(OC)c1O (stereo partly specified),> 100 µM,
CO/N=C(\COc1ccc2c(c1)oc(=O)c1cc(OC)ccc12)c1cccc(OC)c1,> 100 µM,> 100 µM
CCOCC(=O)N[C@H]1CCc2cc(OC(=O)COCC)c(OC)c(OC)c2-c2ccc(SC)c(=O)cc21,> 100 µM,0.0464 µM
Cc1ccc(NC(=O)C(=O)C2NC(=S)NC2=O)c([N+](=O)[O-])c1 (stereo unspecified),> 100 µM,
Oc1ccccc1Nc1nc2ccccc2c2occc12,6.48 µM,0.49 µM

Compound,TGI,GI50
COc1cc(/C=C/c2sc3ccccc3[n+]2C)ccc1N(C)C,45.4 µM,
O=c1[nH]cc(N(CCCl)CCCl)c(=O)[nH]1,333 µM,
C/C1=C\CC[C@@]2(C)O[C@@H]2C[C@@H]2[C@H](C/C(C)=C/CC1)OC(=O)C21CCN=N1 (stereo partly specified),> 100 µM,> 100 µM
COc1cc(S(=O)(=O)Nc2ccc(-c3csc(N4C(=O)C(C)SC4c4ccccc4O)n3)cc2)ccc1Cl (stereo unspecified),> 100 µM,
C[N+](C)(C)Cc1c(CC#N)[nH]c2ccccc12,> 100 µM,
COC(=O)c1oc2c(O)c(OC)c(Br)cc2c1C,42.4 µM,15.8 µM
Cc1ccc(S(=O)(=O)N/N=C/c2oc(-c3ccccc3Cl)c(-c3ccccc3Cl)c2[N+](=O)[O-])cc1,> 100 µM,
COc1ccc(/C=C(\C(=O)OCC(C)C)c2ccc(OC)c(OC)c2)cc1OC,> 100 µM,
CN(C)CCCNC(=O)c1cc(NC(=O)c2cc(NC(=O)[C@H]3C[C@@H]3C(=O)Nc3cc(C(=O)Nc4cc(C(=O)NCCCN(C)C)n(C)c4)n(C)c3)cn2C)cn1C,> 100 µM,
CCN(CC)CCC(=O)c1ccccc1,> 100 µM,
CCCN1CN(c2ccccc2)C2(CCN(CCCC(=O)c3ccc(F)cc3)CC2)C1=O,20.6 µM,
O=c1[nH]c(=O)n(C2OC(CO)C(O)C2O)cc1OCCc1ccccc1 (stereo unspecified),> 100 µM,
O=c1oc2ccc(F)cc2c(=O)n1-c1ccc(Cl)cc1F,> 29 µM,0.691 µM
COc1ccc(Cn2cnc3cc(C(=O)Nc4cccc5ccccc45)ccc32)c(OC)c1,> 100 µM,0.141 µM
O=C(NCC(=O)N1CC[C@H](NC2CCC(O)(c3ccc(-c4ncccn4)cn3)CC2)C1)c1cccc(C(F)(F)F)c1 (stereo partly specified),> 100 µM,> 100 µM
COc1ccc(-c2oc3cc(OC)c(OC)c(OC)c3c(=O)c2OC)cc1OC,> 100 µM,
O=C(CC/C(CC(=O)c1ccc(Cl)cc1)=N/O)Nc1ccc(Cl)c(Cl)c1,> 100 µM,
O=C(Nc1ccc([N+](=O)[O-])cc1C(=O)O)c1ccc([N+](=O)[O-])cc1,> 100 µM,
O=C1c2ccccc2C(=O)C2C3c4ccccc4C(c4ccccc43)C12 (stereo unspecified),> 100 µM,
O=C1c2cccc3cccc(c23)C(=O)N1CCCCN1CCN(CCCCOc2ccc(-c3nc4ccc(N5CCOCC5)cc4[nH]3)cc2)CC1,> 100 µM,> 100 µM
COc1ccc2cc3[n+](cc2c1OC)CCc1cc2c(cc1-3)OCO2,> 100 µM and 217 µM,
COc1cc(-n2cc(-c3ccc(F)cc3)[nH]c2=S)cc(OC)c1OC,> 100 µM,> 100 µM
O[C@@H]1CCCN1Cc1cc2cc3c(cc2c2cc(OCc4ccccc4)ccc12)OCO3,13.2 µM,3.76 µM
CC(=O)O[C@H]1[C@@H](OC2CCCC2(c2ccccc2)c2ccccc2)O[N+]([O-])=C[C@@]12COCc1cc3c(cc12)OCO3 (stereo partly specified),34.7 µM,
c1ccc(SC(Sc2ccccc2)c2ccc3c(c2)OCO3)cc1,> 100 µM,

Compound,TGI,GI50
N#Cc1c(-c2ccc(Cl)cc2)c(-c2ccc(Cl)cc2)nn(CCOC(=O)CCC(=O)O)c1=O,62.1 µM,
O=C(O)/C=C/c1cnc[nH]1,> 500 µM,
O=Cc1[nH]c(=O)[nH]c(=O)c1CCl,> 100 µM,
BrCCC[P+](c1ccccc1)(c1ccccc1)c1ccccc1,> 100 µM,
CCOC(=O)NC(NNc1ccc([N+](=O)[O-])cc1[N+](=O)[O-])(C(F)(F)F)C(F)(F)F,> 100 µM,
O=C1C=CC[C@H](/C=C/C[C@@H](O)C[C@H](O)/C=C/c2ccccc2)O1,20.6 µM,
CC(=O)O[C@H]1[C@H](OC(C)=O)[C@@H](CN=[N+]=[N-])OCO[C@@H]1CN=[N+]=[N-],> 100 µM,
CCC[CH2][Sn]1([CH2]CCC)[O]C(=O)c2cccc(OC)c2[O]1,2.41 µM,1.18 µM
CC1C2(C)OC(=N)C(C#N)(C(c3ccco3)O2)C1(C#N)C#N (stereo unspecified),> 100 µM,
COc1ccc(/C(=N\O)c2cc(OC)c(OC)c(OC)c2)c(OC)c1N,> 100 µM,5.96 µM
CC(C)=CC(O)C/C(C)=C/CC/C(C)=C/CCC1(C)C(CCCO)/C(=C(/C)C=O)CCC1(C)O (stereo unspecified),> 100 µM,
NC1=NN(c2ccccc2)C2(c3ccncc3C(=O)O)C1C(N)=NN2c1ccccc1 (stereo unspecified),> 100 µM,
O=C1OC2c3ccccc3C(=O)C2(c2ccccc2)N1c1ccccc1 (stereo unspecified),> 200 µM,
CC(=O)O[C@H]1CC[C@H]2[C@@H]3CCC4=C(C(=O)C=CC4(C)OC(C)=O)[C@H]3CC[C@]12C (stereo partly specified),> 100 µM,
C[N+](C)(C)C1(C(=O)[O-])CC1,> 100 µM,
Oc1ccc2ccccc2c1C(c1ccc(Cl)cc1)c1c(O)ccc2ccccc12,6.93 µM,
CC(C)(C)c1cn2cccc(C(=O)N3CCN(CC(=O)Nc4ccc(Cl)cc4C(=O)c4ccccc4Cl)CC3)c2n1,83.9 µM,22.5 µM
O=c1[nH]c(=O)n(C2CC(O)C(CO)O2)cc1C#Cc1cc(C(F)(F)F)cc(C(F)(F)F)c1 (stereo unspecified),> 100 µM,
Clc1ccc2c(c1)CC1C[N+]3=C(CCCC3)C1=C2 (stereo unspecified),> 100 µM,
CCOC(=O)/C=C(\C(=O)OCC)n1cnc2c(N)ncnc21,30.2 µM,
CCOC(=O)C1(C(=O)OCC)CSC1,10.3 µM,
Nc1ccc(C(=O)NN2C(=O)C(Cl)C2c2ccc([N+](=O)[O-])cc2)cc1 (stereo unspecified),26.8 µM,
CC(C)CCNC(=O)c1ccc(CNC(=O)/C=C/c2csc(-c3ccccc3)n2)cc1,> 100 µM,
COc1ccc(N(C)c2nc(Cl)nc3ccn(C)c23)cc1,> 100 µM,< 0.01 µM
